From the supplement of paper PMC3334620
In all, about 33,000 sequences were measured (“E-score (-0.5 to 0.5)”: median about -0.012, highest 2% from about 0.29 on). The list shows a part of the results.

Each sequence was assayed against T1, Ybr033w (UniProt P38073) (assay: PBM E-score (8-mer binding enrichment) (E-score (-0.5 to 0.5)); higher = stronger / more preferred TF binding; most listed sequences are background and not binding sites). Conditions: protein concentration: 200 nM; construct: GST-full length.
T1 sequence: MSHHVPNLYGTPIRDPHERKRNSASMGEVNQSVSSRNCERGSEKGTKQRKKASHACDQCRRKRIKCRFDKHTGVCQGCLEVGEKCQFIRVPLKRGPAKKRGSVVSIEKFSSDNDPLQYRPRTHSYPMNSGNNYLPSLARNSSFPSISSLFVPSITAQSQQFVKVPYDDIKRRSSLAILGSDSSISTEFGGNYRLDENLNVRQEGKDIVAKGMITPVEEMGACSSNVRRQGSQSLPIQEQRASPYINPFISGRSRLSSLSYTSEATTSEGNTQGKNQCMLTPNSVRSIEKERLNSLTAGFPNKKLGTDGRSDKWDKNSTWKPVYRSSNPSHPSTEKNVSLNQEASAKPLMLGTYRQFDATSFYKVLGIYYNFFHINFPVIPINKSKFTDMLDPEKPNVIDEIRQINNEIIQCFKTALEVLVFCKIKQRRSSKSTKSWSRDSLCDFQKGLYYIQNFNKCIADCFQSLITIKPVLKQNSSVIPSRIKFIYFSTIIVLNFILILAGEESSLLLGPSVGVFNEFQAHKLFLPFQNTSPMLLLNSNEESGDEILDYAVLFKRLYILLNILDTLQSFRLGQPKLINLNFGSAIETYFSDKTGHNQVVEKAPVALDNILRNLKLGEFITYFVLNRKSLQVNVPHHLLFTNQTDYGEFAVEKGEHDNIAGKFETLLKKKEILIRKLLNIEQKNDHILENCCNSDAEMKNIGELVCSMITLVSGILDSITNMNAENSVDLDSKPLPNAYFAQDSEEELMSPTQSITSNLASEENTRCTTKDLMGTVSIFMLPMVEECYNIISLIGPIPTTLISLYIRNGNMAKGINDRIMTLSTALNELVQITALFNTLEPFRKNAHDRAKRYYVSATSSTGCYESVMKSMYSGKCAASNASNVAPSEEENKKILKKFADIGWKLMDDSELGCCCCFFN
In short: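 Universal all-10-mer Agilent arrays, fresh or stripped once, were converted to double-stranded form by primer extension. GST-tagged yeast transcription factors from PURExpress in vitro transcription/translation, full-length or DNA-binding domain only, were applied at about 100-200 nM and detected with fluorescent anti-GST. After masliner normalisation, the Universal PBM Analysis Suite scored each ungapped eight-base word together with its reverse complement by E-score.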

Row | Sequence | PBM E-score
1 | TAAGATAA | -0.0896
2 | TTCTTCAA | 0.107
3 | AATCAGCC | -0.206
4 | ACAGGGTC | -0.139
5 | AGGGTACA | -0.0463
6 | ATCTTGAA | 0.187
7 | GTTTATGA | 0.0962
8 | CGTCTTAA | -0.00538
9 | CGATGTGA | -0.16
10 | ATACCTGG | -0.328
11 | CAGTGAGA | 0.115
12 | AACGTTGT | 0.0448
13 | CGAAGACG | -0.227
14 | CGCTTTTC | -0.0741
15 | GACAAGAC | -0.132
16 | TCCAAACA | -0.0188
17 | AGTCGGTC | -0.155
18 | CGGTCTTA | -0.0935
19 | AATGTTAC | 0.192
20 | AGCTTCTC | -0.0146
21 | CGGACAAA | 0.297
22 | GTCACGAA | -0.0549
23 | GAACTTAC | 0.123
24 | GGTGGCGA | -0.195
25 | CACATACC | -0.0596

Row | Sequence | PBM E-score
26 | CTGGACGA | -0.176
27 | AGCAAAAT | 0.2
28 | CGTGGGCC | -0.155
29 | AAAACGGC | 0.0978
30 | CCTTCTAA | 0.0287
31 | ATATCATG | 0.117
32 | CGAATACA | 0.0752
33 | CATGAATG | 0.0636
34 | ATTATTAC | 0.343
35 | CCTAGGGC | -0.164
36 | ATGTGCAG | -0.0953
37 | GCTGGCTA | -0.236
38 | AAAACACG | 0.163
39 | ATATGTAG | 0.0986
40 | CCAGCGGG | -0.0746
41 | ATGCAGAA | 0.139
42 | GCAGTAAA | -0.0178
43 | AGTTTTCC | 0.216
44 | AGCTTAAC | -0.0905
45 | CTTCCTTC | -0.0503
46 | CATACTTC | 0.0369
47 | AGAAAGAT | 0.234
48 | GTAACCAC | -0.255
49 | TGCGGCAA | -0.108
50 | ACGGTAGT | 0.126

Row | Sequence | PBM E-score
51 | AAGGTGTC | 0.0112
52 | GCCCACAC | -0.102
53 | CGCAGGAG | -0.016
54 | AATAGGGG | -0.0543
55 | AAACGCTG | -0.223
56 | ATTAGGGA | -0.0481
57 | CTATGCTC | -0.163
58 | AGGCTTAC | -0.0447
59 | AAAAACGT | 0.201
60 | CGGCATAC | -0.0206
61 | AAGTTGTG | 0.121
62 | CACACGAC | -0.167
63 | AACAAATA | 0.285
64 | ATTACACG | 0.12
65 | AGGGTAAG | 0.0154
66 | AGATGAAT | 0.0744
67 | TAAACGCA | 0.122
68 | CCGGACTA | 0.0994
69 | TCCCACGA | 0.0793
70 | GCTAGGTA | -0.0571
71 | ACCACATA | 0.123
72 | GTGATCTA | 0.119
73 | CATACGTA | 0.131
74 | ACGCATCG | -0.117
75 | CTCTTTAA | 0.0502

Row | Sequence | PBM E-score
76 | ATAACTCA | 0.0944
77 | GAACGTAC | -0.00429
78 | TCAATTAA | 0.252
79 | GGGCATAA | 0.0902
80 | ACTCTTGA | 0.0929
81 | GAACTCTA | 0.0293
82 | CGTTGGGC | -0.125
83 | GGAGCGAC | -0.179
84 | AGGCTGAT | -0.0692
85 | GCTCCCCC | -0.441
86 | CCAAAAAA | 0.332
87 | ATTAGGGC | -0.0995
88 | AATATCCC | 0.141
89 | ATTGAACC | 0.126
90 | CAAATGCG | 0.0942
91 | CATCGTTC | -0.144
92 | AACGTCAG | -0.153
93 | AGCCGCAC | 0.0151
94 | AACGCTGT | -0.0162
95 | GGGTCAAC | -0.0379
96 | TGAGGGCA | -0.136
97 | ACATCTAC | 0.0632
98 | GGGTTCGA | -0.186
99 | ATTCCTTG | -0.023
100 | TCCTACCA | -0.0821

Row | Sequence | PBM E-score
101 | GCAGTTAA | 0.0188
102 | GAAGGAAA | -0.0344
103 | TAGCGTAA | 0.178
104 | AGGACGGG | -0.332
105 | CCTGACGA | 0.00681
106 | CGCCCTTC | -0.128
107 | CTAGCCTA | -0.104
108 | GGTACAAC | -0.0662
109 | AGTATTGC | 0.169
110 | CTCTGCGC | -0.118
111 | CCCTCTCG | -0.276
112 | CCAGGCAC | -0.0331
113 | CTCATTGC | 0.0277
114 | GAATTTCA | 0.244
115 | AGCCTCCA | -0.211
116 | ATTAGATA | 0.222
117 | TTCGGAAA | 0.248
118 | CAACCAAC | -0.205
119 | GGTGTCAA | -0.00748
120 | GAACTTCA | 0.0447
121 | GAGATAGC | -0.0429
122 | AGTGCCGA | -0.106
123 | CCCGCTAG | -0.0478
124 | CAGAGTTC | 0.0102
125 | GCTAAAAC | -0.0353

Row | Sequence | PBM E-score
126 | CGCCTCAC | -0.0155
127 | ACAAACCC | -0.121
128 | CACCGGAG | -0.0552
129 | AGGGGAGC | -0.375
130 | AACAATAT | 0.375
131 | GGACGGCC | -0.397
132 | CTAATTAA | 0.133
133 | CTTAATGC | 0.116
134 | AAACGGTG | -0.00876
135 | AAACAATT | 0.273
136 | TACGCCCA | 0.0751
137 | CATCCTTC | -0.0759
138 | CGGTATAG | -0.197
139 | AGCTTCCC | -0.279
140 | AACCACTT | 0.103
141 | TGCTACAA | 0.161
142 | CATACAAC | 0.0804
143 | CCCCTCAG | -0.374
144 | AACCTGGA | 0.0558
145 | CTCCTACA | 0.0493
146 | CCGGATTC | -0.0449
147 | CCTTCGCC | -0.253
148 | ATGCTCAC | -0.0437
149 | ACATCTCC | 0.0694
150 | ATTCGCGG | 0.134

Row | Sequence | PBM E-score
151 | AAGTCTAA | 0.0632
152 | TCTCATAA | 0.158
153 | TGTAGAAA | 0.167
154 | CGGGTCGC | -0.196
155 | TAGGTAAA | -0.0248
156 | CAATTTAG | 0.211
157 | ATGTGGTC | 0.0459
158 | TAAGTGCA | 0.0684
159 | AATCATAA | 0.24
160 | ACCCAAAT | 0.146
161 | GATAGGGA | -0.109
162 | AGACACTA | 0.121
163 | CCGCTACC | -0.0265
164 | ATTCCAAG | 0.146
165 | ATGTCCCA | -0.235
166 | GGATGCTA | 0.0156
167 | TACCTGCA | -0.0676
168 | ACCCCGCT | -0.198
169 | CACTCGGA | 0.18
170 | GAGAAAGC | 0.0939
171 | CCAGTTGA | -0.00251
172 | GATAGATC | 0.0692
